Laboratory results reported in article PMC11169412.
Read-outs that look alike come from different tables or passages of the source. Results are given in words; binding and its absence hold for the method and conditions named. Binding seen in cells or lysates may run through a third protein. Some results given as binding are weak or reduced against the parent protein; the word gives no strength. For part of these data: Where a sequence is shown, tags or fusion partners need not be part of it.

By UniProt entry, the sequences of proteins in these tests, tags left out. Where a name states a change or a piece, a line headed by the entry shows the natural chain unless it says otherwise.
UniProt P54290: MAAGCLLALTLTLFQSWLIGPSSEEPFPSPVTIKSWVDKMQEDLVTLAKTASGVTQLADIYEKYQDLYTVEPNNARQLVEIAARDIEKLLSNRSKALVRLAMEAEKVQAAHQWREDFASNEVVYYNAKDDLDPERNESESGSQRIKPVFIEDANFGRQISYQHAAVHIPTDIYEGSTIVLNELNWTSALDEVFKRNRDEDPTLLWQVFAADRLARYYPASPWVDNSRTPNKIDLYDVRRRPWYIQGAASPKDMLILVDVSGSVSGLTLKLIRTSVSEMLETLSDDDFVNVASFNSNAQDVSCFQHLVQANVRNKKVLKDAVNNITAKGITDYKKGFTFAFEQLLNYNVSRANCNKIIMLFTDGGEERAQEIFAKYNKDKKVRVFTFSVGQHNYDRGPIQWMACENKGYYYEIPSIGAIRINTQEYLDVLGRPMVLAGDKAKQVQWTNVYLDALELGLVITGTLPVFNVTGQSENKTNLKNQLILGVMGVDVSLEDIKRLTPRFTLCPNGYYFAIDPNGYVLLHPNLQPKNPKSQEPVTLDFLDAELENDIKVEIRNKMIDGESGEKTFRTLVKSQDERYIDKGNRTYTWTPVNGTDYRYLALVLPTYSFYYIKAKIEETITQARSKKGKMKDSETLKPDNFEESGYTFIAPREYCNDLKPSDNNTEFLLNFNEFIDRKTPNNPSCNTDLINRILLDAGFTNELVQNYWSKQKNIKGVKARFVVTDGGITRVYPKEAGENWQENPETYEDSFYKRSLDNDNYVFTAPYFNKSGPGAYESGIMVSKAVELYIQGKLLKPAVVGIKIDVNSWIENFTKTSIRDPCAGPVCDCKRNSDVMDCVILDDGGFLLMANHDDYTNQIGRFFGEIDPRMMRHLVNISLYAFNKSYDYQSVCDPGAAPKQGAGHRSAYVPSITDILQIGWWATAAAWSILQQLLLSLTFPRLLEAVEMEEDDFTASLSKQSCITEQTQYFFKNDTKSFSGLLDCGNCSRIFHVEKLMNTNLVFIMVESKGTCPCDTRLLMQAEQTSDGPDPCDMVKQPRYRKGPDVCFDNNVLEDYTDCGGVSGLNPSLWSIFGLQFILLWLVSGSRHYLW
UniProt Q9R0N3: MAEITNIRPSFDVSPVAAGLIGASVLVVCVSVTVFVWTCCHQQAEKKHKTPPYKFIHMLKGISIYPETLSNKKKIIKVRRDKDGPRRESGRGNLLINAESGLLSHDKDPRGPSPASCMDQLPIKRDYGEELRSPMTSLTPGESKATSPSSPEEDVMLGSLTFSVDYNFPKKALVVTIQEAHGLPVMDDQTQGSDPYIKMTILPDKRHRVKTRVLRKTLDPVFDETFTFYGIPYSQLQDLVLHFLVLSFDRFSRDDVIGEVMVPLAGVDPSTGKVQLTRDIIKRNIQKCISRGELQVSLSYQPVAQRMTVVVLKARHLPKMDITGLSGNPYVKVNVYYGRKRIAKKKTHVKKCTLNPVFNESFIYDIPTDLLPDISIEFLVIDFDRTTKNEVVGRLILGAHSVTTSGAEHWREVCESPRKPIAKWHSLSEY
UniProt Q5DTY9: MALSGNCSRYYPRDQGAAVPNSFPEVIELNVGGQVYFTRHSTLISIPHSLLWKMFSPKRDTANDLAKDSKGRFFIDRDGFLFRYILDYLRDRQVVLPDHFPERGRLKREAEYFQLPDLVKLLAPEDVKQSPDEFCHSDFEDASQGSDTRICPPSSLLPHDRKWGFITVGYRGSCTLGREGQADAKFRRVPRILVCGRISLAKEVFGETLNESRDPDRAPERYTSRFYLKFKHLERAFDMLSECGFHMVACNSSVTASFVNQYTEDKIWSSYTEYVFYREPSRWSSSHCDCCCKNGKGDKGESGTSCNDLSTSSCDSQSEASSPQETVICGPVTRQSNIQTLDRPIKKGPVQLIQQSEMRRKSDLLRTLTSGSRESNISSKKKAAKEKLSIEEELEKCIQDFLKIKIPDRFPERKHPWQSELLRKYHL
UniProt Q50H33: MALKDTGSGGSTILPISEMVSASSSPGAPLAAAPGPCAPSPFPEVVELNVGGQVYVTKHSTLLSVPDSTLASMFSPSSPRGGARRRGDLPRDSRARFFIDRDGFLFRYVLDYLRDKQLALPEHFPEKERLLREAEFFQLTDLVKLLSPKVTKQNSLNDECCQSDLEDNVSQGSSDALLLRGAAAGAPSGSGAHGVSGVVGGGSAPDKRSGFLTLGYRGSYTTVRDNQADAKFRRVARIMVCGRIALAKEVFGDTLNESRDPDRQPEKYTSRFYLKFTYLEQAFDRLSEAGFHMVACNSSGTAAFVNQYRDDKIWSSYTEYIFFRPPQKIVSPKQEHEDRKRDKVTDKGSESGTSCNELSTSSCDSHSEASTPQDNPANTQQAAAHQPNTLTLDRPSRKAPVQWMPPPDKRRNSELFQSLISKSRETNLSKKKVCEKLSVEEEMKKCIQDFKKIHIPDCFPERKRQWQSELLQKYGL
UniProt P46096: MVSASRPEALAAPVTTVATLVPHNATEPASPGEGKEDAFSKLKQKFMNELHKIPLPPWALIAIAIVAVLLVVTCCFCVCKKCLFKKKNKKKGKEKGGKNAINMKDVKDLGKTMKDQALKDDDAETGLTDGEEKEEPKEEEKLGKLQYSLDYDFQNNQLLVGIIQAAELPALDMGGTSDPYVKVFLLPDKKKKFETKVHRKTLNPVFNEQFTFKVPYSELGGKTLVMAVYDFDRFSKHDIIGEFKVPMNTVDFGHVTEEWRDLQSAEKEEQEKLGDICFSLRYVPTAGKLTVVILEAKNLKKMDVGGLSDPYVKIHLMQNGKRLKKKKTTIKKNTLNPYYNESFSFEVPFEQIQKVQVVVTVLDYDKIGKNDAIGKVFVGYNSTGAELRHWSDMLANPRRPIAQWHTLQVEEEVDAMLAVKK

Assays:
[1] = target: Cav2.2 channel (α1B subunit co-expressed with auxiliary β and α2δ subunits) (rat | human) (UniProt Q02294+P54284+P54290); assay: co-IP; lysates of transfected HEK293T cells in Nonidet P-40 buffer (100 mM NaCl, 1 mM EDTA, 0.5% Nonidet P-40 Substitute, 20 mM Tris/HCl pH 7.4); antibody 3 h at 4 °C, Protein G Dynabeads, 5 washes, Western blot; with or without co-expressed KCTD proteins
[2] = target: T1, Myc-tagged intracellular C-terminal domain of GB2 (mouse) (UniProt Q80T41); assay: as above
T1 sequence: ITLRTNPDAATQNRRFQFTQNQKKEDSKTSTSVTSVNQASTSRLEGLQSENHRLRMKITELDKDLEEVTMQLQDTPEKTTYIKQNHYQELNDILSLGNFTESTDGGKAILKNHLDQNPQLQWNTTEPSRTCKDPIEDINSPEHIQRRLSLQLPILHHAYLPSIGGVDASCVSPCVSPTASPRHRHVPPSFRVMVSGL

eGFP-tagged Syt11 [3] = target: eGFP-tagged Syt11 (UniProt Q9R0N3); assay: as above
GB2-VC [4] = target: T2, GB2-VC (UniProt Q80T41); assay: as above
T2 sequence: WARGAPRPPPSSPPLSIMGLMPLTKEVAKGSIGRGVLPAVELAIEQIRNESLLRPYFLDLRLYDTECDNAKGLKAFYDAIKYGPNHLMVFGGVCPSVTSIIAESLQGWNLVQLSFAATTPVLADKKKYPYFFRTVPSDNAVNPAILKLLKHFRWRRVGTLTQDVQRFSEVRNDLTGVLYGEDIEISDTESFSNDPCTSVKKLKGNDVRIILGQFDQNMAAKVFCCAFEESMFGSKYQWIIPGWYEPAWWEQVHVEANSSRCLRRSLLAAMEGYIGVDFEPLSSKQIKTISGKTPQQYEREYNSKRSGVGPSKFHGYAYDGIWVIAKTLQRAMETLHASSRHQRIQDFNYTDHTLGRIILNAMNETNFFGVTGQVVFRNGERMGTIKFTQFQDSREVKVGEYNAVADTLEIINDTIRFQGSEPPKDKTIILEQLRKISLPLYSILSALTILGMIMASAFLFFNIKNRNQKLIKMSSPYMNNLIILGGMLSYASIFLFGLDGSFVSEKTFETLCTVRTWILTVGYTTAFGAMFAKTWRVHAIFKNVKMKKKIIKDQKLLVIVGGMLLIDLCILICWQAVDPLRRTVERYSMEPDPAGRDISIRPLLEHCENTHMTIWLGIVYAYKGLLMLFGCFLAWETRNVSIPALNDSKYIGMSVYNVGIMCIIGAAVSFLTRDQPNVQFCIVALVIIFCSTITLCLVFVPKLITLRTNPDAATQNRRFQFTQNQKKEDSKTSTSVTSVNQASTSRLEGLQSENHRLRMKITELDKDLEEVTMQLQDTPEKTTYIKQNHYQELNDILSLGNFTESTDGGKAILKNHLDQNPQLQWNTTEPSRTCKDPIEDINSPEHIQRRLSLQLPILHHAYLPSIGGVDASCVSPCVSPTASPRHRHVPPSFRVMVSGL

HA-tagged GB2 = target: T3, HA-tagged GB2 (UniProt Q80T41); assay: as above
T3 sequence: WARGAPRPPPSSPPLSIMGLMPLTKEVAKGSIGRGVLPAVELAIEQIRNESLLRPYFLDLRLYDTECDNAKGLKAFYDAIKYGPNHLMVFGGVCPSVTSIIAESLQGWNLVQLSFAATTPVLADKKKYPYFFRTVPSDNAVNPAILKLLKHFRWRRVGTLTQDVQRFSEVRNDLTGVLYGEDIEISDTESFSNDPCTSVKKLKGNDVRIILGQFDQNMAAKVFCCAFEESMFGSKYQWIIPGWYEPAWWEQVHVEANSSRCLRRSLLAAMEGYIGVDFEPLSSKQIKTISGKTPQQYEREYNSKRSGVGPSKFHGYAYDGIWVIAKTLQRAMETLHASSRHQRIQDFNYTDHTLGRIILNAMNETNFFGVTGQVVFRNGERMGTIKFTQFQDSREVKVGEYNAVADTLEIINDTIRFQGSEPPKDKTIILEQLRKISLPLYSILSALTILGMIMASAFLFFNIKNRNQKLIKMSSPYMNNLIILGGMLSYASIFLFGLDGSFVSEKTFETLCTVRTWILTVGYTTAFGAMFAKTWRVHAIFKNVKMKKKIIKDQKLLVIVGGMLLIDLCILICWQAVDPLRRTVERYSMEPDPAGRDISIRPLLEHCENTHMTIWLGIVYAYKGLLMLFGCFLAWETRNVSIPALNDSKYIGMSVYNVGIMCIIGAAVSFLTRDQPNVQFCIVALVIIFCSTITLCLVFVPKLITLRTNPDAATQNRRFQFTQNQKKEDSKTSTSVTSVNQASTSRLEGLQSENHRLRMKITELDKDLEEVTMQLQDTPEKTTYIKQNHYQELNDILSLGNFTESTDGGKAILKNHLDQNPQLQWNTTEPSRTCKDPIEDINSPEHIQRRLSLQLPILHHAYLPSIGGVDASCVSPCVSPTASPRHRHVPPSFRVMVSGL

GB2-VC [5] = target: T2, GB2-VC; assay: split reporter; BiFC of Venus fragments VN and VC in transfected HEK293T cells, with or without KCTD16; confocal imaging
eGFP-tagged Syt11 [6] = target: eGFP-tagged Syt11 (UniProt Q9R0N3); assay: co-IP; lysates of transfected HEK293T cells in Nonidet P-40 buffer (100 mM NaCl, 1 mM EDTA, 0.5% Nonidet P-40 Substitute, 20 mM Tris/HCl pH 7.4); antibody 3 h at 4 °C, Protein G Dynabeads, 5 washes, Western blot; with or without co-expressed KCTD proteins; remark: listed apart in the source

## FLAG-tagged KCTD16 (from UniProt Q5DTY9 1-427)
[1]
  binding: binds
[2]
  binding: binds

## KCTD8 (from UniProt Q50H33 1-476)
eGFP-tagged Syt11 [3]
  binding: no binding

## KCTD16 (tag not told; BiFC validation and Fig. EV2B) (from UniProt Q5DTY9 1-427)
GB2-VC [4]
  binding: binds
HA-tagged GB2
  binding: binds

## Myc-tagged KCTD16 (from UniProt Q5DTY9 1-427)
eGFP-tagged Syt11 [3]
  binding: binds

## Myc-tagged Syt11 (from UniProt Q9R0N3 1-430)
[1]
  binding: binds

## Syt1-VN (from UniProt P46096 1-421)
GB2-VC [5]
  binding: no binding

B1: HA-tagged GB2Y902A (receptor, UniProt Q80T41 41-940)
chain: WARGAPRPPPSSPPLSIMGLMPLTKEVAKGSIGRGVLPAVELAIEQIRNESLLRPYFLDLRLYDTECDNAKGLKAFYDAIKYGPNHLMVFGGVCPSVTSIIAESLQGWNLVQLSFAATTPVLADKKKYPYFFRTVPSDNAVNPAILKLLKHFRWRRVGTLTQDVQRFSEVRNDLTGVLYGEDIEISDTESFSNDPCTSVKKLKGNDVRIILGQFDQNMAAKVFCCAFEESMFGSKYQWIIPGWYEPAWWEQVHVEANSSRCLRRSLLAAMEGYIGVDFEPLSSKQIKTISGKTPQQYEREYNSKRSGVGPSKFHGYAYDGIWVIAKTLQRAMETLHASSRHQRIQDFNYTDHTLGRIILNAMNETNFFGVTGQVVFRNGERMGTIKFTQFQDSREVKVGEYNAVADTLEIINDTIRFQGSEPPKDKTIILEQLRKISLPLYSILSALTILGMIMASAFLFFNIKNRNQKLIKMSSPYMNNLIILGGMLSYASIFLFGLDGSFVSEKTFETLCTVRTWILTVGYTTAFGAMFAKTWRVHAIFKNVKMKKKIIKDQKLLVIVGGMLLIDLCILICWQAVDPLRRTVERYSMEPDPAGRDISIRPLLEHCENTHMTIWLGIVYAYKGLLMLFGCFLAWETRNVSIPALNDSKYIGMSVYNVGIMCIIGAAVSFLTRDQPNVQFCIVALVIIFCSTITLCLVFVPKLITLRTNPDAATQNRRFQFTQNQKKEDSKTSTSVTSVNQASTSRLEGLQSENHRLRMKITELDKDLEEVTMQLQDTPEKTTYIKQNHYQELNDILSLGNFTESTDGGKAILKNHLDQNPQLQWNTTEPSRTCKDPIEDINSPEHIQRRLSLQLPILHHAALPSIGGVDASCVSPCVSPTASPRHRHVPPSFRVMVSGL
eGFP-tagged Syt11 [6]
  binding: no binding
